Laboratory results published in publication PMC12040169 (PLOS Biology, 2025).
Some of the results follow.

System: T1, C. trachomatis L2/434/Bu expressing GFP (CTL2-GFP)
T1 construct: L2/434/Bu GFP intracellular growth in HeLa cells
Parameters: species or system HeLa; C. trachomatis total inclusion area by high-content imaging, normalised to DMSO
Settings: total inclusion area; 28.5 h, 10 µM; inhibitor
Procedure, shortened: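 Imaging read-out: GFP inclusions and Hoechst nuclei captured by high-content imaging after fixation. Inclusion area/number = chlamydial growth; nuclei count = host cell viability. MIC calculated per earlier method.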

Question: Which “% of control remaining” value does the source give for `CC(C)n1nccc1C(=O)NC1CCN(Cc2cccc(F)c2)CC1` [CBK282596] here?
Answer: 104.634

Question: For `CS(=O)(=O)CCC(C(=O)O)N1C(=O)c2ccc(C(=O)O)cc2C1=O` (stereo not shown) [CBK265719], which “% of control remaining” value is on record?
Answer: 123.836

Question: How did the “% of control remaining” value turn out when `CCOc1ccc2nc(NC(=O)c3nc(SCc4ccccc4)ncc3Cl)sc2c1` [CBK269109] was run?
Answer: 105.296

Question: With `COc1cc2c(cc1OC)C(CCCC#N)=[N+](C)C(C)(C)C2` [CBK008807I] as the compound, how does the “% of control remaining” value read?
Answer: 51.9262

Question: `O=C(NCc1nc(-c2ccccc2)no1)C(c1cccs1)c1cccs1` [CBK286340] was tested. Which “% of control remaining” value did it give?
Answer: 106.748

Question: Which “% of control remaining” value does the source give for `O=C(NC(c1ccc(Cl)cc1)c1cnccn1)C1CCN(C(=O)c2ccccc2)CC1` (stereo not shown) [CBK059634] here?
Answer: 107.505

Question: With `c1cc(-c2nccnc2Oc2ccc3c(c2)OCO3)ccn1` [CBK106726] as the compound, how does the “% of control remaining” value read?
Answer: 101.312

Question: `CC1CCc2nn(CCNC(=O)c3ccco3)c(=O)cc2C1` (stereo not shown) [CBK284481] was tested. Which “% of control remaining” value did it give?
Answer: 103.521

Question: With `CC(C)CNc1nc(-c2cccc(N(C)C)c2)cnc1N` [CBK063870] as the compound, how does the “% of control remaining” value read?
Answer: 102.064

Question: `Cc1ccc(Cl)c(OC(C)C(=O)N(CCCO)Cc2ccncc2)c1` (stereo not shown) [CBK305432] was tested. Which “% of control remaining” value did it give?
Answer: 85.6038

Question: Which “% of control remaining” value does the source give for `O=C(O)C1CCCN(C(=O)CCc2c[nH]c3ccccc23)C1` (stereo not shown) [CBK286925] here?
Answer: 93.0906

Question: For `CCn1c2ccccc2c2cc(CN3CCN(Cc4c[nH]c5ccccc45)CC3)ccc21` [CBK263167], which “% of control remaining” value is on record?
Answer: 63.9803

Question: How did the “% of control remaining” value turn out when `Cc1ncncc1C(=O)NCC1(c2ccccc2F)CCCC1` [CBK281411] was run?
Answer: 79.7542

Question: For `O=c1c2c3c(sc2n2c(S)nnc2n1Cc1ccccc1)CN(Cc1ccccc1)CC3` [CBK262973], which “% of control remaining” value is on record?
Answer: 112.65

Question: With `c1ccc(CSc2nnc(COc3cccc4ccccc34)n2Cc2ccccc2)cc1` [CBK267215] as the compound, how does the “% of control remaining” value read?
Answer: 102.085

Question: `O=C(CNC(=O)c1ccccc1F)N/N=C/c1cccs1` [CBK261953] was tested. Which “% of control remaining” value did it give?
Answer: 75.3917

Question: `CC(=O)Nc1ccc(CCNC(=O)NCc2nc(C3CC3)no2)cc1` [CBK306221] was tested. Which “% of control remaining” value did it give?
Answer: 89.0719

Question: Which “% of control remaining” value does the source give for `C=CCNS(=O)(=O)c1ccc(NC(=O)Cc2cccc3ccccc23)cc1` [CBK269379] here?
Answer: 91.9187

Question: `COc1cccc(NC(=O)N[C@H]2[C@H](O)[C@@H](N3CCOCC3)[C@@H]3OC[C@H]2O3)c1` [CBK288821] was tested. Which “% of control remaining” value did it give?
Answer: 102.374

Question: `O=C(NCCCN1CCOCC1)c1ccccc1Br` [CBK262602C] was tested. Which “% of control remaining” value did it give?
Answer: 97.7332

Question: For `CCOC(=O)CNc1nc(OC)cc(OC)n1` [CBK093392], which “% of control remaining” value is on record?
Answer: 89.218

Question: How did the “% of control remaining” value turn out when `Cc1cccnc1C1(O)CCN(C(=O)Cc2ccccc2F)CC1` [CBK283617] was run?
Answer: 117.758

Question: Which “% of control remaining” value does the source give for `Cc1ccccc1N1CCC(CNC(=O)CCn2nc(C)c(C)c2C)C1` (stereo not shown) [CBK307465] here?
Answer: 105.053

Question: `CC(CC(=O)O)CC(=O)Nc1ccccc1C(=O)O` (stereo not shown) [CBK265671] was tested. Which “% of control remaining” value did it give?
Answer: 117.278

Question: Which “% of control remaining” value does the source give for `CCCCC(c1cccnc1)N(C)C(=O)c1cc(C)c(CC)n(C)c1=O` (stereo not shown) [CBK306999] here?
Answer: 89.0968

Question: Which “% of control remaining” value does the source give for `CNC1CCN(S(=O)(=O)c2sc3ccc(C(C)C)cc3c2C)C1` (stereo not shown) [CBK170067] here?
Answer: 46.9509

Question: For `COC(=O)c1ccc2c(=O)n(CC(C)O)c(SC3CCOC3=O)nc2c1` (stereo not shown) [CBK304997], which “% of control remaining” value is on record?
Answer: 36.4695

Question: `O=C(NCCc1cccs1)Nc1cc(C(F)(F)F)cc(C(F)(F)F)c1` [CBK043718] was tested. Which “% of control remaining” value did it give?
Answer: 68.8518

Question: Which “% of control remaining” value does the source give for `COc1ccc([N+](=O)[O-])cc1NC(=O)c1ccc(-c2cc3ccccc3oc2=O)cc1` [CBK267325] here?
Answer: 99.3544

Question: `O=c1[nH]c2ncc(-c3cccnc3)nc2n1CCN1CCOCC1` [CBK065070] was tested. Which “% of control remaining” value did it give?
Answer: 79.7267

Question: `CCn1cc(C(=O)N2CCOC(C(=O)O)C2)c(=O)c2ccc(C)nc21` (stereo not shown) [CBK307165] was tested. Which “% of control remaining” value did it give?
Answer: 64.5964

Question: Which “% of control remaining” value does the source give for `O=C(CN1CCCC1Cn1cccn1)N1CCCc2ccccc21` (stereo not shown) [CBK281971] here?
Answer: 103.73

Question: Which “% of control remaining” value does the source give for `Cc1cc(Cl)c(S(=O)(=O)Nc2ccc(C#N)cc2)cc1OCC(N)=O` [CBK266560] here?
Answer: 96.8363

Question: For `Cc1ccc(-n2c(=O)[nH]cc(C(=O)Nc3ccc(C)c(F)c3)c2=O)cc1C` [CBK287550], which “% of control remaining” value is on record?
Answer: 84.6706

Question: For `COc1ccc(CNC(=O)c2sc3nc4c(c(C(F)(F)F)c3c2N)CCC4)cc1OC` [CBK074568], which “% of control remaining” value is on record?
Answer: 86.6557

Question: `Cc1cccc(C)c1NC(=O)c1nccnc1C(=O)O` [CBK260915] was tested. Which “% of control remaining” value did it give?
Answer: 94.5236

Question: `O=C(CSc1ccc2nnc(-c3ccccc3)n2n1)NCc1ccco1` [CBK287514] was tested. Which “% of control remaining” value did it give?
Answer: 117.33

Question: `O=[N+]([O-])c1ccc(Sc2cccc(F)c2)nc1` [CBK002905] was tested. Which “% of control remaining” value did it give?
Answer: 86.7627

Question: With `COc1cc(CNc2ccccc2Cl)ccc1OCC(=O)O` [CBK287045] as the compound, how does the “% of control remaining” value read?
Answer: 107.333

Question: How did the “% of control remaining” value turn out when `c1ccc(OCCN2CCC(Oc3cncc(OCCN4CCOCC4)n3)C2)cc1` (stereo not shown) [CBK084499] was run?
Answer: 78.8736

Question: Which “% of control remaining” value does the source give for `COc1ccc(C(=O)C2=C(O)C(=O)N(Cc3cccnc3)C2c2cccc(OC)c2OC)cc1C` (stereo not shown) [CBK264906] here?
Answer: 113.19

Question: With `COc1ccc(CCNC(=S)NN2CCN(C)CC2)cc1OC` [CBK266884] as the compound, how does the “% of control remaining” value read?
Answer: 95.2387

Question: How did the “% of control remaining” value turn out when `O=C1NC(=O)C(CCCCN2CCCc3ccccc32)N1` (stereo not shown) [CBK143965] was run?
Answer: 97.9631

Question: `O=C1N[C@@H]2CCN(C(=O)C3CC3)[C@@H]2C(=O)N1c1ccc(F)cc1` [CBK289324] was tested. Which “% of control remaining” value did it give?
Answer: 111.387

Question: For `O=C(Nc1ccc2ncccc2c1)c1cccnc1` [CBK159820], which “% of control remaining” value is on record?
Answer: 91.31

Question: `Cc1cc(C)n(C2CCN(Cc3ccc(-n4ccnc4C)cc3)CC2)n1` [CBK281976] was tested. Which “% of control remaining” value did it give?
Answer: 98.3152

Question: With `NC(=O)c1[nH]nc(C2OC(CO)C(O)C2O)c1O` (stereo not shown) [CBK201236] as the compound, how does the “% of control remaining” value read?
Answer: 42.592

Question: For `Cc1nn(Cc2ccc(C(=O)N3CCN(Cc4ccccc4)CC3)o2)c(C)c1Br` [CBK265796C], which “% of control remaining” value is on record?
Answer: 96.5751

Question: How did the “% of control remaining” value turn out when `Cc1ccc(C(=O)NCC2COc3ccccc3O2)c(N2CCOCC2)n1` (stereo not shown) [CBK076519] was run?
Answer: 97.9622

Question: With `CCn1cc(NCc2ccccc2Cl)c(C(=O)O)n1` [CBK286807] as the compound, how does the “% of control remaining” value read?
Answer: 95.3504

Question: Which “% of control remaining” value does the source give for `CCn1cc(C(=O)N2CCCC2c2nc3ccccc3[nH]2)c(C)n1` (stereo not shown) [CBK283777] here?
Answer: 98.8511

Question: `CC(C)[C@H](CO)n1c(=O)[nH]c2ncc(-c3cccc4ccccc34)nc21` [CBK064985] was tested. Which “% of control remaining” value did it give?
Answer: 120.357
